Experimental data as given in article PMC7564666.
Positions count from the first letter of the chain named. No constants are given. Whether binding was seen depends on the method and setting. Binding seen in cells or lysates may run through a third protein. Some binding calls cover weakened binding; strength is not graded here. For some assays here: Sequences can lack the tags named with a protein.

Sequences of proteins named here, by UniProt entry; tags and fusion partners are left off.
UniProt Q9UKV8: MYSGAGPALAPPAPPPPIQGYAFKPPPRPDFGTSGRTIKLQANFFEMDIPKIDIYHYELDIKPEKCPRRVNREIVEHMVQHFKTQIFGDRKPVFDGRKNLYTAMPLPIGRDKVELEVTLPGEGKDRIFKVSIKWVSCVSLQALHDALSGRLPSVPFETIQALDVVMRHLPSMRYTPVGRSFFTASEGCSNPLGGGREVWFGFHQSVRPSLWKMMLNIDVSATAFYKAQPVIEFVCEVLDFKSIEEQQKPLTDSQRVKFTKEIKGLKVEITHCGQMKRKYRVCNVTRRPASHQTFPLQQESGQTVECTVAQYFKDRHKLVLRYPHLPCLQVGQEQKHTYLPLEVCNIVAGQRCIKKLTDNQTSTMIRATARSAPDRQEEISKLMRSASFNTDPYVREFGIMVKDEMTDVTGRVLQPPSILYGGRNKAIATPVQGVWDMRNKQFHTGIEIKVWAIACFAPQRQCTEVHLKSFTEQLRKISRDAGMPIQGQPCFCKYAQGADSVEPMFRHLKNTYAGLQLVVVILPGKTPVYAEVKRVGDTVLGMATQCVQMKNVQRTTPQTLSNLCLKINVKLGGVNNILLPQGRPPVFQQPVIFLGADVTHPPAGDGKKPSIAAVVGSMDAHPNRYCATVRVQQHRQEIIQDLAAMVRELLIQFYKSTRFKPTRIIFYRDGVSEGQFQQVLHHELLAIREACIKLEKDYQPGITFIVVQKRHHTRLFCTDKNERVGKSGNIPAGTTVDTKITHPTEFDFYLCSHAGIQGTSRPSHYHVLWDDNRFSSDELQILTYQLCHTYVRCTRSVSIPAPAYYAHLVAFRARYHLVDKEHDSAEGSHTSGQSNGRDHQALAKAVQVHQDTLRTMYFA

How the values were obtained:
[1] = target: T1, GST-LASP1 S146D/Y171F (human) (UniProt Q14847); assay: pull-down; GST-LASP1 phospho-mutants on glutathione-agarose beads with 231S total lysate (Co-IP buffer; endogenous LASP1 present); Western blot for Ago2; only the target purified
T1 sequence: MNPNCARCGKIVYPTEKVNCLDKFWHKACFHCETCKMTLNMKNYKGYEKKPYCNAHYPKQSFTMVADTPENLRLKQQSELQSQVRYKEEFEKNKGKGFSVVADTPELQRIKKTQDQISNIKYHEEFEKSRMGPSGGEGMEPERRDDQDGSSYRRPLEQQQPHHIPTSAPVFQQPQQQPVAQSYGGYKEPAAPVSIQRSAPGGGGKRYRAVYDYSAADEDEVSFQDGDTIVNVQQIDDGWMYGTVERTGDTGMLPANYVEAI

GST-LASP1 S146A (human) = target: T2, GST-LASP1 S146A (human) (UniProt Q14847); assay: as above
T2 sequence: T1 sequence with D146A, F171Y

[2] = target: T3, LIM and SH3 Protein 1 (LASP1), endogenous (human (endogenous in MDA-MB-231 variants 231S and Bone-Un)) (UniProt Q14847); assay: proximity ligation; Duolink in situ, rabbit anti-Ago2 and mouse anti-LASP1, fixed Bone-Un cells; unstimulated, 20 nM CXCL12 for 30 min, or CXCL12 after 100 nM AMD3465
T3 sequence: T1 sequence with D146S, F171Y

GST-LASP1 Y171D (human) = target: T4, GST-LASP1 Y171D (human) (UniProt Q14847); assay: pull-down; 1.5 nmol GST-LASP1 phospho-mutants on glutathione-agarose beads with 1 mg of Bone-Un LASP1 knockout total lysate (Co-IP buffer), 2 h at 4 °C; Western blot for Ago2; only the target purified
T4 sequence: T1 sequence with D146S, F171D

[3] = target: T5, GST-LASP1 S146A/Y171F (human) (UniProt Q14847); assay: as above
T5 sequence: T1 sequence with D146A

[4] = target: T6, GST-LASP1 S146D/Y171D (human) (UniProt Q14847); assay: as above
T6 sequence: T1 sequence with F171D

[5] = target: T7, GST-LASP1 S146A/Y171D (human) (UniProt Q14847); assay: as above
T7 sequence: T1 sequence with D146A, F171D

[6] = target: T3, LIM and SH3 Protein 1 (LASP1), endogenous (human (endogenous in MDA-MB-231 variants 231S and Bone-Un)); assay: co-IP; 231S cells serum starved 1 h, stimulated with 20 nM CXCL12 for 0–60 min; 1 mg lysate in Co-IP buffer, immunoprecipitated with mouse anti-LASP1 and protein G Dynabeads, 2 h at 4 °C; blotted for Ago2 and LASP1

- binding [1]: binds weakly
- binding (GST-LASP1 S146A (human)): binds
- binding [2]: binds
- binding (GST-LASP1 Y171D (human)): binds
- binding [3]: binds
- binding [4]: binds
- binding [5]: binds
- binding [6]: binds
Substance: argonaute 2 (Ago2), endogenous (from UniProt Q9UKV8 1-859)
